According to PubChem BioAssay AID1347165 (National Center for Advancing Translational Sciences (NCATS), 2019):
In all, about 220,000 compounds went through this assay and about 5,700 (2.6%) were called active. The shares of active, inactive and inconclusive entries below differ from those in the screen. Calls follow the shape of the dose curve; as a rule, active = well fitted inhibition curve with a large enough effect; inconclusive = small, poorly fitted or top-dose-only effect; inactive = no such curve, though single readings can be large or run the other way. A potency beside an inconclusive call is a rough fit, not a confirmed value.

molecular target: Lysine-specific demethylase 5B (Homo sapiens) (UniProt Q9UGL1); experiment: Primary screen for KDM5B Histone Demethylases FDH-coupled qHTS; conditions: FDH-coupled NADH fluorescence (FDH is formaldehyde dehydrogenase); activity change, negative = inhibition: at 57.7 µM (top of the series) unless noted; also: nearly all actives have a fitted effect of over 70% in size; as to activity change, negative = inhibition: 0% is about no effect
Chain of UniProt Q9UGL1 (Q9UGL1 whole entry, looked up): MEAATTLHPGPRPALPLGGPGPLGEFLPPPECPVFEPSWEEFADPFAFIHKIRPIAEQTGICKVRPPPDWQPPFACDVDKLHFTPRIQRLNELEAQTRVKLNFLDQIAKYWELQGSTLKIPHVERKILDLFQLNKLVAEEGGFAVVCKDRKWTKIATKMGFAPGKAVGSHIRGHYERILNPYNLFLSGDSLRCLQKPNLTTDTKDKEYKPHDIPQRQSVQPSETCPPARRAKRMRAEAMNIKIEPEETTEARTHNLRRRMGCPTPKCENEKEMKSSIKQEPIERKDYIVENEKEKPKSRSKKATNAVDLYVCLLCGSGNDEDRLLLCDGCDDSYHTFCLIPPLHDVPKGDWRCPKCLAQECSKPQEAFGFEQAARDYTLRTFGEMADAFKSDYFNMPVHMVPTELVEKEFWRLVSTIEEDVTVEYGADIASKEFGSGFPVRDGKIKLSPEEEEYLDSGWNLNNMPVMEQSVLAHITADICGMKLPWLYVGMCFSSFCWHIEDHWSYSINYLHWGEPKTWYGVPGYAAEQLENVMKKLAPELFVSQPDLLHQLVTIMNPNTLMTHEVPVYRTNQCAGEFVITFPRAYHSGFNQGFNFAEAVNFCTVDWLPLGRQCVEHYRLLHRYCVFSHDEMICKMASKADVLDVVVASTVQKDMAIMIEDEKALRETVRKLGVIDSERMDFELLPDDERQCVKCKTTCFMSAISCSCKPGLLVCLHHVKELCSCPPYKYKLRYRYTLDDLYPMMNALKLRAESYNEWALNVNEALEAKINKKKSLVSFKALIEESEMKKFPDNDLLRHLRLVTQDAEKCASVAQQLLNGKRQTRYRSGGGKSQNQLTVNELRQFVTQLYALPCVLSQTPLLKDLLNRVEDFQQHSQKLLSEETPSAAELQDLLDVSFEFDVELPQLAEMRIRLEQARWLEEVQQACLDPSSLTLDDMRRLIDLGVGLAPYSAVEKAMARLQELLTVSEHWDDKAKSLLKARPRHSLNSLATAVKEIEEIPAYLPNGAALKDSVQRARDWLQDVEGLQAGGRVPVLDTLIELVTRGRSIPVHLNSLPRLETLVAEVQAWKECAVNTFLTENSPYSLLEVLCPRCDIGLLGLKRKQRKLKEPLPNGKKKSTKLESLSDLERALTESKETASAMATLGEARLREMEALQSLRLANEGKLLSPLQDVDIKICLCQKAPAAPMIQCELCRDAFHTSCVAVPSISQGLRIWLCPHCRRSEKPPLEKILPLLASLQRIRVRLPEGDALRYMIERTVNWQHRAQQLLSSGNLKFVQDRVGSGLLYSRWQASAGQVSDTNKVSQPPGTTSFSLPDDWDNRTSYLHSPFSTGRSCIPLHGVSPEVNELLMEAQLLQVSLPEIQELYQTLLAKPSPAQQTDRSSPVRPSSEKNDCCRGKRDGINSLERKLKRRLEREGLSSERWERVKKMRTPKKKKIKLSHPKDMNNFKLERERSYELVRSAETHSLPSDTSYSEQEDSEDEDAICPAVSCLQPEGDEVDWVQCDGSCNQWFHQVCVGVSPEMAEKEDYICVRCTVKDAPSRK
Outline: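 Coupled FDH/NAD⁺ fluorescence readout. KDM5BΔAP 200 nM final; compound titration, 10 min RT preincubation; substrate mix 12.5 µM H3K4me3, 25 µM 2-OG, 50 µM Fe(II), 100 µM ascorbate, 0.25 mM NAD⁺, 0.25 U/mL FDH; ΔRFU over 30 min.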
Potency is read from the fitted curve at half-maximal effect; tags tell the direction and shape of the fitted curve.

**Q.** Which Potency does the source give for `CN(CC(=O)NC(=O)NC1CCCC1)CC(=O)Nc1ccc(Cl)c(C(F)(F)F)c1` here?
**A.** The Potency was “inactive”.

**Q.** With `COc1ccc(OC)c(CN2CCCn3nc(C)c(-c4cccnc4N4CCOCC4)c32)c1` as the compound, how does the Potency read?
**A.** Its Potency is active: 12.6 µM.

**Q.** For `O=C(O)CC1(CC(=O)NCc2ccc(C(F)(F)F)cc2)CCCCC1`, which Potency is on record?
**A.** The Potency was inconclusive: 39.8 µM [inhibitor, partial curve, poor fit].

**Q.** How did the Potency turn out when `Cc1ccc(CNC(=O)NCC23CCC=C2N(C)C(=O)CC3)cc1` (stereo not given) was run?
**A.** The Potency was inconclusive: 15.8 µM [inhibitor, partial curve].

**Q.** With `COc1ccc(NC(=O)Cc2c(C)c3ccc(O)cc3oc2=O)cc1` as the compound, how does the Potency read?
**A.** The Potency was “inactive”.

**Q.** Which activity change, negative = inhibition does the source give for `COc1cccc(CNC(=O)c2ccc3c(Cl)c4c(nc3c2)CCCC4)c1` here?
**A.** Its activity change, negative = inhibition is inconclusive: -45.6% [inhibitor].

**Q.** For `Cc1ccc(C(C)C)c(OCc2ccc(C(=O)Nc3ccc(S(N)(=O)=O)cc3C)o2)c1`, which Potency is on record?
**A.** Its Potency is inconclusive: 14.1 µM [inhibitor, partial curve, poor fit].

**Q.** With `CCOc1ccccc1C(=O)N[C@@H]1CN(Cc2ccncc2)C[C@H]1CN(C)C` as the compound, how does the Potency read?
**A.** The Potency was inconclusive: 22.4 µM [inhibitor, single point].

**Q.** With `COc1cc(NC(=O)c2ccc(F)cc2)c(OC)cc1NC(=O)CN1CCCCC1` as the compound, how does the Potency read?
**A.** Its Potency is inconclusive: 8.91 µM [inhibitor, full curve, poor fit].

**Q.** `COc1ccccc1-c1ccc2ncn(-c3ccc(F)cc3F)c(=O)c2n1` was tested. Which Potency did it give?
**A.** Its Potency is inconclusive: 56.2 µM [inhibitor, single point].

**Q.** `COc1ccc(-c2cc(N3CCCC(NC(=O)c4ccoc4)C3)n[nH]2)cc1` (stereo not given) was tested. Which Potency did it give?
**A.** Its Potency is inconclusive: 25.1 µM [inhibitor, partial curve, poor fit].

**Q.** For `O=C(CSc1nc2ccccc2o1)N/N=C/c1ccc(O)c(O)c1`, which Potency is on record?
**A.** Its Potency is inconclusive: 31.6 µM [inhibitor, partial curve, poor fit].

**Q.** `N#Cc1c(NC(=O)c2ccnn2C(F)F)sc2c1CCCCC2` was tested. Which Potency did it give?
**A.** The Potency was inconclusive: 39.8 µM [inhibitor, single point].

**Q.** For `COCC1CN(C2CCC2)CC12CCN(Cc1ccc(OC)c(OC)c1)CC2` (stereo not given), which Potency is on record?
**A.** The Potency was inconclusive: 28.2 µM [inhibitor, partial curve, poor fit].

**Q.** Which Potency does the source give for `COc1cc(OC)cc(C(=O)NCC(=O)O)c1` here?
**A.** Its Potency is “inactive”.

**Q.** How did the Potency turn out when `COc1ccccc1-c1nc(-c2c(C)noc2C)cc2cc(CN(C)C)oc12` was run?
**A.** The Potency was active: 35.5 µM.

**Q.** How did the Potency turn out when `COc1ccc(CN2CCCC(c3cc(=O)[nH]c(C)n3)C2)c(OC)c1C` (stereo not given) was run?
**A.** The Potency was “inactive”.

**Q.** For `O=C(CNC(=O)c1ccccc1)OCc1cc(=O)oc2cc(O)ccc12`, which Potency is on record?
**A.** The Potency was inconclusive: 22.4 µM [inhibitor, partial curve, poor fit].

**Q.** How did the Potency turn out when `Cc1ccc(SCC(=O)Nc2ccc3oc(-c4ccc(F)cc4)nc3c2)cc1` was run?
**A.** The Potency was inconclusive: 44.7 µM [inhibitor, single point].

**Q.** `CCc1nc2nc(C)cc(Nc3cc(Cl)ccc3OC)n2n1` was tested. Which Potency did it give?
**A.** Its Potency is inconclusive: 17.8 µM [inhibitor, partial curve, poor fit].

**Q.** `CCc1ccc(CNC(=O)c2ccc(NC(=O)N3CCSc4ncccc43)cc2)cc1` was tested. Which Potency did it give?
**A.** The Potency was inconclusive: 15.8 µM [inhibitor, partial curve, poor fit].

**Q.** How did the Potency turn out when `O=C(NCc1cccnc1-n1cncn1)C1CC2(CCNCC2)CN1` (stereo not given) was run?
**A.** The Potency was “inactive”.

**Q.** How did the Potency turn out when `Cc1cc(C)c(CNC(=O)c2nc(-c3cccc(CO)c3)cc3c2ccn3C)c(=O)[nH]1` was run?
**A.** Its Potency is active: 35.5 µM.

**Q.** `c1cc(-c2cc(-c3ccncc3)c3cncn3c2)c2[nH]ccc2c1` was tested. Which Potency did it give?
**A.** Its Potency is “inactive”.

**Q.** How did the Potency turn out when `CCc1ccc(CNC(=O)c2cnc3sc(N4CCCCCC4)nn3c2=O)cc1` was run?
**A.** The Potency was inconclusive: 1.41 µM [inhibitor, full curve, poor fit].

**Q.** For `CC(C)CN1CCN(C(=O)[C@@H]2CN(S(C)(=O)=O)C[C@H]2c2ccncc2)CC1`, which Potency is on record?
**A.** Its Potency is inconclusive: 39.8 µM [inhibitor, partial curve, poor fit].

**Q.** With `CCC1CCCCN1C(=O)CSc1nc(-c2ccc(OC)cc2)cc(C(F)(F)F)n1` (stereo not given) as the compound, how does the Potency read?
**A.** Its Potency is inconclusive: 35.5 µM [inhibitor, partial curve, poor fit].

**Q.** With `O=C(Oc1ccc(Br)cc1)c1cnccn1` as the compound, how does the Potency read?
**A.** The Potency was inconclusive: 17.8 µM [inhibitor, partial curve, poor fit].

**Q.** Which Potency does the source give for `COc1ccccc1C(=O)Oc1ccc(Cl)cc1C(=O)/C=C/c1ccc(F)cc1` here?
**A.** Its Potency is inconclusive: 20 µM [inhibitor, partial curve, poor fit].

**Q.** Which Potency does the source give for `CCn1cnc2cc(NCc3ccc(N(C)C)cc3)ccc21` here?
**A.** Its Potency is inconclusive: 15.8 µM [inhibitor, partial curve, poor fit].

**Q.** How did the Potency turn out when `COc1cccc(CNC(=O)C2CCCN(c3nnc(-n4c(C)ccc4C)s3)C2)c1` (stereo not given) was run?
**A.** The Potency was inconclusive: 3.16 µM [inhibitor, partial curve, poor fit].

**Q.** `O=C(NC1CCCc2c1[nH]c1ccccc21)c1n[nH]c2c1CCC2` (stereo not given) was tested. Which Potency did it give?
**A.** The Potency was inconclusive: 14.1 µM [inhibitor, partial curve].

**Q.** With `N#Cc1cccnc1NCCNC(=O)Nc1cn[nH]c1` as the compound, how does the Potency read?
**A.** Its Potency is inconclusive: 28.2 µM [inhibitor, partial curve, poor fit].

**Q.** `CCOC(=O)c1sc(NCCCOC)nc1C(F)(F)F` was tested. Which Potency did it give?
**A.** The Potency was “inactive”.

**Q.** `Cc1cc(-c2nc(C3CCOC3)no2)c2ccccc2n1` (stereo not given) was tested. Which Potency did it give?
**A.** Its Potency is active: 28.2 µM.

**Q.** For `O=C(c1ccsc1)N1CCC(O)(c2ccccc2)[C@H](N2CCCC2)C1` (stereo not given in full), which Potency is on record?
**A.** Its Potency is inconclusive: 11.2 µM [inhibitor, partial curve, poor fit].

**Q.** `CS(=O)(=O)c1ccc(O[C@H]2COCCN(Cc3ccc(-c4ccccc4)cc3)C2)cc1` was tested. Which Potency did it give?
**A.** The Potency was inconclusive: 31.6 µM [inhibitor, single point].

**Q.** How did the Potency turn out when `Cc1ccc(CSc2nc3cccnc3n2Cc2nc(-c3ccccc3F)oc2C)cc1` was run?
**A.** Its Potency is inconclusive: 31.6 µM [inhibitor, partial curve, poor fit].

**Q.** For `CC1=C[C@@H](CNC(=O)COCC(=O)O)[C@H](C(C)C)C[C@H]1Cc1nc2ccccc2n1C`, which Potency is on record?
**A.** Its Potency is inconclusive: 35.5 µM [inhibitor, single point].

**Q.** Which Potency does the source give for `CC1CCC(NC(=O)c2cc(Sc3ccc(F)cc3)nc3ccccc23)CC1` (stereo not given) here?
**A.** The Potency was “inactive”.

**Q.** How did the Potency turn out when `COc1ccc(CNC(=O)CSc2nnc(C)n2C2CC2)cc1` was run?
**A.** Its Potency is “inactive”.

**Q.** Which Potency does the source give for `Cc1cc(C(=O)N2CCCC2)n[nH]1` here?
**A.** Its Potency is “inactive”.

**Q.** With `Cc1cccc(NC(=O)Cn2c(=O)oc3cc(S(=O)(=O)N4CCCCCC4)ccc32)c1` as the compound, how does the Potency read?
**A.** The Potency was inconclusive: 2.82 µM [inhibitor, full curve, poor fit].

**Q.** `CN(C)C(=O)c1ccc(NC(=O)c2cc(-c3ccco3)nc3ccccc23)cc1` was tested. Which Potency did it give?
**A.** The Potency was inconclusive: 31.6 µM [inhibitor, partial curve, poor fit].

**Q.** `CCn1cc(C(=O)NCC(=O)NC(C)(C)CO)c(=O)c2cc3c(cc21)OCO3` was tested. Which Potency did it give?
**A.** The Potency was inconclusive: 22.4 µM [inhibitor, partial curve, poor fit].

**Q.** Which Potency does the source give for `O=C(c1ccoc1)N1CCCC(CN2CCCC2)CC1` (stereo not given) here?
**A.** The Potency was inconclusive: 28.2 µM [inhibitor, single point].

**Q.** With `COc1ccc(CNC(=O)CCS(=O)(=O)c2cc3c4c(c2)CCN4C(=O)CC3)cc1` as the compound, how does the Potency read?
**A.** Its Potency is “inactive”.

**Q.** Which Potency does the source give for `CC(=O)COc1ccc2c(C(F)(F)F)cc(=O)oc2c1` here?
**A.** Its Potency is inconclusive: 2 µM [inhibitor, full curve, poor fit].

**Q.** With `COC(=O)c1ccc(NC(=O)c2cc3cc4ccc(OC)c(Cl)c4nc3s2)cc1` as the compound, how does the Potency read?
**A.** Its Potency is inconclusive: 35.5 µM [inhibitor, single point].

**Q.** With `COc1ccc(-c2cc3cc(OC)c(OC)cc3cn2)cc1OC` as the compound, how does the Potency read?
**A.** Its Potency is inconclusive: 39.8 µM [inhibitor, single point].

**Q.** How did the Potency turn out when `Cn1c(C(=O)N2CCC3(CCNC(=O)CC3)CC2)cc2c(Cl)cccc21` was run?
**A.** The Potency was inconclusive: 0.631 µM [inhibitor, partial curve, poor fit].

**Q.** For `O[C@@H]1C[C@@H](c2nnc3n2CCN(Cc2cccc(F)c2)C3)N(Cc2cccnc2)C1`, which Potency is on record?
**A.** The Potency was inconclusive: 22.4 µM [inhibitor, single point].

**Q.** Which Potency does the source give for `CCCNC(=O)c1ccc(-c2nc(CS(=O)(=O)c3ccccc3)c(C)o2)cc1` here?
**A.** The Potency was inconclusive: 28.2 µM [inhibitor, partial curve, poor fit].

**Q.** With `Cc1ccc(Cn2c(Cc3ccccc3)nc3ccccc32)cc1` as the compound, how does the Potency read?
**A.** The Potency was “inactive”.

**Q.** With `Cc1cc(C)n(CCC(=O)NCC23CCC=C2N(CC2CC2)C(=O)CC3)n1` (stereo not given) as the compound, how does the Potency read?
**A.** Its Potency is inconclusive: 25.1 µM [inhibitor, single point].

**Q.** With `CN(CCCCOc1ccc2ccccc2c1)CCCCOc1ccc2ccccc2c1` as the compound, how does the Potency read?
**A.** The Potency was inconclusive: 22.4 µM [inhibitor, partial curve, poor fit].

**Q.** For `CC(=O)Nc1c(-c2ccccc2)c(C)nn1-c1ccc(C(=O)N2CCN(C3CCCCC3)CC2)cc1`, which Potency is on record?
**A.** The Potency was “inactive”.

**Q.** `O=C(c1ccc(Cl)c(Cl)c1)N(Cc1ccco1)c1ccc(O)cc1` was tested. Which Potency did it give?
**A.** Its Potency is inconclusive: 22.4 µM [inhibitor, partial curve, poor fit].

**Q.** How did the Potency turn out when `O=C(NCc1ccccc1)c1nc2c(o1)CCN(Cc1c(F)cccc1F)CC2` was run?
**A.** Its Potency is inconclusive: 14.1 µM [inhibitor, partial curve, poor fit].

**Q.** How did the Potency turn out when `C[S+](=O)([O-])c1ccc(-c2nc(C(=O)NCc3cccnc3)n3ccccc23)cc1` was run?
**A.** The Potency was “inactive”.

**Q.** How did the Potency turn out when `CCCNC(=O)NC(=O)COC(=O)c1cc(C)nc2ccccc12` was run?
**A.** The Potency was inconclusive: 10 µM [inhibitor, partial curve, poor fit].

**Q.** `Cn1cccc1C1CCCN1Cc1nc(-c2ccc(Cl)cc2)no1` (stereo not given) was tested. Which Potency did it give?
**A.** Its Potency is “inactive”.

**Q.** How did the Potency turn out when `O=C(CCC(=O)c1ccc2c(c1)OCCCO2)NC1CCCCCC1` was run?
**A.** Its Potency is “inactive”.

**Q.** For `Cc1nn(C)c(C)c1CN(Cc1ccnc2ccccc12)C1CC1`, which Potency is on record?
**A.** Its Potency is inconclusive: 28.2 µM [inhibitor, partial curve, poor fit].

**Q.** With `CC(C)c1noc(-c2cn(C3CCN(C(=O)c4ccccc4Cl)CC3)nn2)n1` as the compound, how does the Potency read?
**A.** Its Potency is inconclusive: 7.08 µM [inhibitor, single point].
